# Measured values from the antibiotic and cytotoxicity screens of Wong et al. (2023).
# The other results are listed elsewhere or left out.
# Columns and labels:
# HSkMC = human skeletal muscle cells; assay: cytotoxicity call (relative viability < 0.9); settings: 10 µM
# HepG2 = assay: cytotoxicity call (relative viability < 0.9); settings: 10 µM
# S. aureus RN4220 = assay: growth inhibition call (relative growth <= 0.2); settings: 50 µM
Compound,cytotoxicity call (HSkMC),cytotoxicity call (HepG2),growth inhibition call (S. aureus RN4220)
O=C(C[C@@H]1CC[C@H](NC(=O)c2cnccn2)[C@@H](CO)O1)NCc1ccccc1F,inactive,inactive,inactive
Cc1ccc(S(=O)(=O)Nc2ccc3c(c2)C(=O)N([C@@H](C)CO)C[C@H](C)[C@H](CN(C)C(=O)Cc2ccccc2)OCCCC[C@@H](C)O3)cc1,inactive,inactive,inactive
C[C@H](CO)N1C[C@H](C)[C@H](CN(C)Cc2ccncc2)Oc2c(NC(=O)C3CCOCC3)cccc2C1=O,inactive,inactive,inactive
C[C@@H]1CN([C@@H](C)CO)C(=O)c2cc(NC(=O)Nc3cccc4ccccc34)ccc2O[C@@H](C)CCCCO[C@H]1CN(C)C(=O)Nc1cccc2ccccc12,inactive,inactive,inactive
CC(C)CC#Cc1cnc2c(c1)C(=O)N([C@@H](C)CO)C[C@@H](C)[C@H](CN(C)S(=O)(=O)c1ccccc1)O2,inactive,inactive,inactive
C[C@H]1CCCCO[C@H](CN(C)C(=O)Nc2ccc(C(F)(F)F)cc2)[C@@H](C)CN([C@@H](C)CO)C(=O)c2cc(NS(=O)(=O)c3cn(C)cn3)ccc2O1,inactive,inactive,inactive
C[C@H](CO)N1C[C@H](C)[C@H](CN(C)Cc2ccc(C(=O)O)cc2)Oc2ccc(NC(=O)C3CC3)cc2CC1=O,inactive,inactive,inactive
C[C@@H]1CN([C@@H](C)CO)C(=O)Cc2cc(NC(=O)c3ccncc3)ccc2O[C@@H]1CN(C)S(=O)(=O)c1ccc(F)cc1,inactive,inactive,inactive
C[C@H](O)C#Cc1ccc2c(c1)O[C@@H](CN(C)C)[C@H](C)CN([C@H](C)CO)S2(=O)=O,inactive,inactive,inactive
CC(C)N1C(=O)NC(=O)[C@@H]1CC(=O)O,inactive,inactive,inactive
C[C@@H]1CN([C@H](C)CO)C(=O)c2cc(NS(C)(=O)=O)ccc2O[C@H]1CN(C)Cc1ccc(C(=O)O)cc1,inactive,inactive,inactive
C[C@@H]1CN([C@H](C)CO)C(=O)CCCn2cc(nn2)CO[C@@H]1CN(C)C(=O)Nc1ccnc(N2CCOCC2)c1,inactive,inactive,inactive
COCC#Cc1cnc2c(c1)C(=O)N([C@H](C)CO)C[C@H](C)[C@@H](CN(C)C(C)=O)O2,inactive,inactive,inactive
C[C@H]1CN([C@@H](C)CO)C(=O)c2cc(NC(=O)Nc3ccc(C(F)(F)F)cc3)ccc2O[C@H]1CN(C)Cc1ccc(Cl)c(Cl)c1,active,active,inactive
Cc1nccn1C[C@H](C)C(=O)O,inactive,inactive,inactive
C[C@@H]1CN([C@H](C)CO)C(=O)Cc2cc(NC(=O)CCCCCC(=O)Nc3ccccc3N)ccc2O[C@H]1CN(C)Cc1ccc(-c2ccccc2)cc1,inactive,inactive,inactive
CCOc1cc(C(C)(C)C)ccc1C1=N[C@@](C)(c2ccc(Cl)cc2)[C@@](C)(c2ccc(Cl)cc2)N1C(=O)N1CCN(CCCS(C)(=O)=O)CC1,active,inactive,inactive
CO[C@@H]1CN(C)C(=O)c2cc(NC(=O)CCCC[C@@H]3SC[C@@H]4NC(=O)N[C@@H]43)ccc2OC[C@@H](C)N(Cc2ccc(-c3ccccn3)cc2)C[C@@H]1C,inactive,inactive,inactive
Cn1c(=O)c2c(ncn2CC2OCCO2)n(C)c1=O,inactive,inactive,inactive
C[C@H]1CCCCO[C@H](CN(C)C(=O)Nc2cccc3ccccc23)[C@@H](C)CN([C@@H](C)CO)C(=O)c2cc(NS(C)(=O)=O)ccc2O1,inactive,inactive,inactive
O=C(NCC(F)(F)F)C1CCNCC1,inactive,inactive,inactive
Cc1ccc(S(=O)(=O)Nc2ccc3c(c2)C(=O)N([C@@H](C)CO)C[C@@H](C)[C@@H](CN(C)C(=O)Nc2ccc(C(F)(F)F)cc2)OCCCC[C@H](C)O3)cc1,inactive,inactive,inactive
COCCNC(=O)C[C@H]1CC[C@H]2[C@@H](COC[C@@H](O)CN2C(=O)Nc2ccccc2OC)O1,inactive,inactive,inactive
Cc1noc(C)c1-c1ccc(N)cc1,inactive,inactive,inactive
COc1ccc(S(=O)(=O)N(C)C[C@H]2OCCCC[C@H](C)Oc3ccc(NC(=O)CCC(F)(F)F)cc3C(=O)N([C@@H](C)CO)C[C@@H]2C)cc1,inactive,inactive,inactive
C[C@@H]1CCCCO[C@H](CN(C)C(=O)CCCN(C)C)[C@H](C)CN([C@@H](C)CO)C(=O)c2cc(NC(=O)Nc3ccc(C(F)(F)F)cc3)ccc2O1,inactive,inactive,inactive
